# In the supplement of paper PMC8728848:
# The list shows a part of the results.
# B1: Als3-41 (Candida albicans) (protein)
# chain: KTITGVFNSFNSLTWSNAATYNYKGPGTPTWNAVLGWSLDGTSASPGDTFTLNMPCVFKFTTSQTSVDLTAHGVKYATCQFQAGEEFMTFSTLTCTVSNTLTPSIKALGTVTLPLAFNVGGTGSSVDLEDSKCFTAGTNTVTFNDGGKKISINVDFERSNVDPKGYLTDSRVIPSLNKVSTLFVAPQCANGYTSGTMGFANTYGDVQIDCSNIHVGITKGLNDWNYPVSSESFSYTKTCSSNGIFITYKNVPAGYRPFVDAYISATDVNSYTLSYANEYTCAGGYWQRAPFTLRWTGYRNSDAGSNGIVIVATTRTVTDSTTAVTTLPFDPNRDKTKTIEILKPIPTTTITTSYVGVTTSYLTKTAPIGETATVIVD
# Experiments:
# Assay in all cases: glycan array binding signal (z-score within array); higher = stronger binding
# Settings in all cases: glycan notation: IUPAC condensed, linker removed
# [1] = molecular target: Fuc(a1-2)Gal(b1-4)[Fuc(a1-3)]GlcNAc
# Method in brief: (§1)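 The binding signal is a Z-score computed within each array and averaged over linkers. Arrays of the same protein sequence at different concentrations or buffers were also averaged together. Data originate from 3228 arrays in the Consortium for Functional Glycomics database, kept only where the protein sequence was available.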
# [2] = molecular target: Fuc(a1-2)Gal(b1-4)[Fuc(a1-3)]GlcNAc(b1-2)Man(a1-3)[Fuc(a1-2)Gal(b1-4)[Fuc(a1-3)]GlcNAc(b1-2)Man(a1-6)]Man(b1-4)GlcNAc(b1-4)[Fuc(a1-6)]GlcNAc
# Method in brief: as §1
# [3] = molecular target: Fuc(a1-2)Gal(b1-4)[Fuc(a1-3)]GlcNAc(b1-2)[Fuc(a1-2)Gal(b1-4)[Fuc(a1-3)]GlcNAc(b1-4)]Man(a1-3)[Fuc(a1-2)Gal(b1-4)[Fuc(a1-3)]GlcNAc(b1-2)Man(a1-6)]Man(b1-4)GlcNAc(b1-4)GlcNAc
# Method in brief: as §1
# [4] = molecular target: Fuc(a1-2)Gal(b1-4)[Fuc(a1-3)]GlcNAc(b1-3)Gal(b1-4)[Fuc(a1-3)]GlcNAc
# Method in brief: as §1
# [5] = molecular target: Fuc(a1-2)Gal(b1-4)[Fuc(a1-3)]GlcNAc(b1-3)Gal(b1-4)[Fuc(a1-3)]GlcNAc(b1-3)Gal(b1-4)[Fuc(a1-3)]GlcNAc
# Method in brief: as §1
# [6] = molecular target: Fuc(a1-2)Gal(b1-4)[Fuc(a1-3)]GlcNAc(b1-3)GalNAc
# Method in brief: as §1
# [7] = molecular target: Fuc(a1-2)Gal(b1-4)[Fuc(a1-3)]GlcNAc(b1-3)[Neu5Ac(a2-6)Gal(b1-4)GlcNAc(b1-6)]Gal(b1-4)Glc
# Method in brief: as §1
# [8] = molecular target: Fuc(a1-2)Gal3S(b1-4)GlcNAc
# Method in brief: as §1
# [9] = molecular target: Fuc(a1-2)Gal6S(b1-3)GlcNAc
# Method in brief: as §1
# [10] = molecular target: Fuc(a1-2)Gal6S(b1-3)GlcNAc6S
# Method in brief: as §1
# Fuc(a1-2)Gal6S(b1-4)Glc = molecular target: Fuc(a1-2)Gal6S(b1-4)Glc
# Method in brief: as §1
# [11] = molecular target: Fuc(a1-2)Gal6S(b1-4)Glc6S
# Method in brief: as §1
# Fuc(a1-2)[Gal(a1-3)]Gal = molecular target: Fuc(a1-2)[Gal(a1-3)]Gal
# Method in brief: as §1
# [12] = molecular target: Fuc(a1-2)[Gal(a1-3)]Gal(b1-3)GalNAc
# Method in brief: as §1
# [13] = molecular target: Fuc(a1-2)[Gal(a1-3)]Gal(b1-3)GalNAc(b1-3)Gal(a1-4)Gal(b1-4)Glc
# Method in brief: as §1
# [14] = molecular target: Fuc(a1-2)[Gal(a1-3)]Gal(b1-3)GlcNAc
# Method in brief: as §1
# [15] = molecular target: Fuc(a1-2)[Gal(a1-3)]Gal(b1-3)GlcNAc(b1-2)Man(a1-3)[Fuc(a1-2)[Gal(a1-3)]Gal(b1-3)GlcNAc(b1-2)Man(a1-6)]Man(b1-4)GlcNAc(b1-4)GlcNAc
# Method in brief: as §1
# [16] = molecular target: Fuc(a1-2)[Gal(a1-3)]Gal(b1-3)GlcNAc(b1-2)Man(a1-3)[Fuc(a1-2)[Gal(a1-3)]Gal(b1-3)GlcNAc(b1-2)Man(a1-6)]Man(b1-4)GlcNAc(b1-4)[Fuc(a1-6)]GlcNAc
# Method in brief: as §1
# [17] = molecular target: Fuc(a1-2)[Gal(a1-3)]Gal(b1-3)GlcNAc(b1-3)GalNAc
# Method in brief: as §1
# [18] = molecular target: Fuc(a1-2)[Gal(a1-3)]Gal(b1-3)GlcNAc(b1-6)GalNAc
# Method in brief: as §1
# [19] = molecular target: Fuc(a1-2)[Gal(a1-3)]Gal(b1-4)Glc
# Method in brief: as §1
# [20] = molecular target: Fuc(a1-2)[Gal(a1-3)]Gal(b1-4)GlcNAc
# Method in brief: as §1
# [21] = molecular target: Fuc(a1-2)[Gal(a1-3)]Gal(b1-4)GlcNAc(b1-2)Man
# Method in brief: as §1
# [22] = molecular target: Fuc(a1-2)[Gal(a1-3)]Gal(b1-4)GlcNAc(b1-2)Man(a1-3)[Fuc(a1-2)[Gal(a1-3)]Gal(b1-4)GlcNAc(b1-2)Man(a1-6)]Man(b1-4)GlcNAc(b1-4)GlcNAc
# Method in brief: as §1
# [23] = molecular target: Fuc(a1-2)[Gal(a1-3)]Gal(b1-4)GlcNAc(b1-2)Man(a1-3)[Fuc(a1-2)[Gal(a1-3)]Gal(b1-4)GlcNAc(b1-2)Man(a1-6)]Man(b1-4)GlcNAc(b1-4)[Fuc(a1-6)]GlcNAc
# Method in brief: as §1
# [24] = molecular target: Fuc(a1-2)[Gal(a1-3)]Gal(b1-4)GlcNAc(b1-3)GalNAc
# Method in brief: as §1
# [25] = molecular target: Fuc(a1-2)[Gal(a1-3)]Gal(b1-4)GlcNAc(b1-3)[Fuc(a1-2)[Gal(a1-3)]Gal(b1-4)GlcNAc(b1-6)]GalNAc
# Method in brief: as §1
# [26] = molecular target: Fuc(a1-2)[Gal(a1-3)]Gal(b1-4)GlcNAc(b1-6)GalNAc
# Method in brief: as §1
# [27] = molecular target: Fuc(a1-2)[Gal(a1-3)]Gal(b1-4)[Fuc(a1-3)]Glc
# Method in brief: as §1
# [28] = molecular target: Fuc(a1-2)[Gal(a1-3)]Gal(b1-4)[Fuc(a1-3)]GlcNAc
# Method in brief: as §1
# [29] = molecular target: Fuc(a1-2)[Gal(a1-3)]Gal(b1-4)[Fuc(a1-3)]GlcNAc(b1-3)GalNAc
# Method in brief: as §1
# [30] = molecular target: Fuc(a1-2)[Gal(a1-4)]Gal(b1-4)GlcNAc
# Method in brief: as §1
# [31] = molecular target: Fuc(a1-2)[GalNAc(a1-3)]Gal
# Method in brief: as §1
# [32] = molecular target: Fuc(a1-2)[GalNAc(a1-3)]Gal(b1-3)GalNAc(a1-3)[Fuc(a1-2)]Gal(b1-4)GlcNAc
# Method in brief: as §1
# [33] = molecular target: Fuc(a1-2)[GalNAc(a1-3)]Gal(b1-3)GalNAc(b1-3)Gal(a1-4)Gal(b1-4)Glc
# Method in brief: as §1
# [34] = molecular target: Fuc(a1-2)[GalNAc(a1-3)]Gal(b1-3)GlcNAc
# Method in brief: as §1
# [35] = molecular target: Fuc(a1-2)[GalNAc(a1-3)]Gal(b1-3)GlcNAc(b1-2)Man(a1-3)[Fuc(a1-2)[GalNAc(a1-3)]Gal(b1-3)GlcNAc(b1-2)Man(a1-6)]Man(b1-4)GlcNAc(b1-4)GlcNAc
# Method in brief: as §1
# [36] = molecular target: Fuc(a1-2)[GalNAc(a1-3)]Gal(b1-3)GlcNAc(b1-2)Man(a1-3)[Fuc(a1-2)[GalNAc(a1-3)]Gal(b1-3)GlcNAc(b1-2)Man(a1-6)]Man(b1-4)GlcNAc(b1-4)[Fuc(a1-6)]GlcNAc
# Method in brief: as §1
binder,measurement,setting,value
B1,glycan array binding signal (z-score),[1],-0.148
same,glycan array binding signal (z-score),[2],0.333
same,glycan array binding signal (z-score),[3],0.707
same,glycan array binding signal (z-score),[4],-0.291
same,glycan array binding signal (z-score),[5],-0.37
same,glycan array binding signal (z-score),[6],0.462
same,glycan array binding signal (z-score),[7],-0.377
same,glycan array binding signal (z-score),[8],-0.305
same,glycan array binding signal (z-score),[9],-0.047
same,glycan array binding signal (z-score),[10],0.433
same,glycan array binding signal (z-score),Fuc(a1-2)Gal6S(b1-4)Glc,-0.235
same,glycan array binding signal (z-score),[11],-0.216
same,glycan array binding signal (z-score),Fuc(a1-2)[Gal(a1-3)]Gal,-0.266
same,glycan array binding signal (z-score),[12],-0.028
same,glycan array binding signal (z-score),[13],-0.1
same,glycan array binding signal (z-score),[14],-0.197
same,glycan array binding signal (z-score),[15],-0.265
same,glycan array binding signal (z-score),[16],-0.313
same,glycan array binding signal (z-score),[17],-0.174
same,glycan array binding signal (z-score),[18],-0.078
same,glycan array binding signal (z-score),[19],-0.193
same,glycan array binding signal (z-score),[20],-0.296
same,glycan array binding signal (z-score),[21],-0.195
same,glycan array binding signal (z-score),[22],-0.283
same,glycan array binding signal (z-score),[23],-0.325
same,glycan array binding signal (z-score),[24],-0.244
same,glycan array binding signal (z-score),[25],1.91
same,glycan array binding signal (z-score),[26],-0.229
same,glycan array binding signal (z-score),[27],-0.294
same,glycan array binding signal (z-score),[28],-0.105
same,glycan array binding signal (z-score),[29],-0.129
same,glycan array binding signal (z-score),[30],-0.135
same,glycan array binding signal (z-score),[31],-0.177
same,glycan array binding signal (z-score),[32],-0.283
same,glycan array binding signal (z-score),[33],0.499
same,glycan array binding signal (z-score),[34],0.28
same,glycan array binding signal (z-score),[35],-0.203
same,glycan array binding signal (z-score),[36],-0.264
